Laboratory results published in the supplement of paper PMC4166925.
± gives the standard deviation of the averaged measurements. In all, about 33,000 sequences were measured (“E-score (dimensionless, -0.5 to 0.5)”: median about -0.049, highest 2% from about 0.37 on). The list shows a part of the results.

These sequences were tested on T1, PmTbr T-box DNA-binding domain (GST fusion) (assay: PBM E-score of 8-mer (E-score (dimensionless, -0.5 to 0.5)); Tbr is Tbrain of the sea star Patiria miniata (Pm) or the sea urchin Strongylocentrotus purpuratus (Sp); higher = stronger binding preference; most listed sequences are background and not binding sites). Conditions: the construct has about 5 more residues each side.
T1 sequence: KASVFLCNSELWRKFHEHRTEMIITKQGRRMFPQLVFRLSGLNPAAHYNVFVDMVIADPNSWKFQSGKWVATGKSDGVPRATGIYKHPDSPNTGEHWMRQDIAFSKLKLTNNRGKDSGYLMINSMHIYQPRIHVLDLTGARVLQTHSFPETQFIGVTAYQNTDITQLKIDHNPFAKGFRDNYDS
In short: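 Using the Universal PBM Analysis Suite, every ungapped 8-mer received an enrichment E-score averaged over duplicate arrays. Probe intensities came from double-stranded Universal Agilent oligonucleotide arrays incubated with 200 nM GST-fused Tbr T-box DNA-binding domain in PBS (pH 7.5). That protein was expressed in BL21 E. coli at 20 °C and purified by glutathione affinity chromatography.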

Point of comparison: GTTACATA, “PBM E-score of 8-mer” value -0.0916 ± 0.032. Against it:
- TCCAACAA — higher, -0.055 ± 0.0034
- ACTAACAA — higher, 0.214 ± 0.032
- CTCCATTA — lower, -0.215 ± 0.057
- AAGGTGAT — higher, 0.424 ± 0.021
- CGTGCCAG — higher, 0.178 ± 0.0057
- AGGCAGCA — lower, -0.237 ± 0.018
- ACCACAAA — higher, -0.014 ± 0.036
- CCTTAGAC — within error, -0.0798 ± 0.038
- AATATAAT — within error, -0.0469 ± 0.047
- CCGACGAC — within error, -0.0371 ± 0.099
- ATCGTCCC — higher, -0.0488 ± 0.0074
- AAGCGTCG — higher, 0.0961 ± 0.0071
- GTTGCCGA — within error, -0.0534 ± 0.066
- AACCTCGC — higher, 0.196 ± 0.035
- CCCTCCAG — within error, -0.117 ± 0.04
- GACCGAGA — within error, -0.102 ± 0.024
- CCTACGCA — lower, -0.19 ± 0.057
- CGTCTTCC — within error, -0.0652 ± 0.0067
- GCCATCAA — within error, -0.0808 ± 0.022
- TAACTTGA — within error, -0.127 ± 0.056
- AGCCTACT — higher, -0.00437 ± 0.033
- AGTCGCTC — within error, 0.00723 ± 0.089
- ATCTGAAC — higher, 0.0481 ± 0.04
- ACTTCTGG — higher, 0.0765 ± 0.065
- CAGCATTC — within error, -0.0896 ± 0.0049
- CATGACAC — higher, 0.389 ± 0.0048
- CGATGCTA — within error, -0.0532 ± 0.085
- CCCTAAGC — higher, -0.0346 ± 0.01
- CGTGCGCA — higher, 0.0827 ± 0.019
- CAGGGTGA — higher, 0.155 ± 0.077
- CCAACATA — higher, 0.064 ± 0.042
- CAAGTCTG — higher, 0.157 ± 0.013
- CGTCTACA — within error, -0.0537 ± 0.044
- AACGGATG — within error, -0.0787 ± 0.049
- GTTCGGTA — higher, 0.0103 ± 0.042
- TGGCCGAA — within error, 0.00542 ± 0.071
- CTCTCATA — lower, -0.152 ± 0.0066
- ACTTTGTG — higher, 0.0808 ± 0.11
- GCCTGCAC — higher, 0.0125 ± 0.0026
- ACGCGGGA — within error, -0.188 ± 0.1
- ACCAAATA — lower, -0.2091 ± 0.0015
- CGCCACGA — higher, 0.0748 ± 0.052
- AGTCCTGC — within error, -0.102 ± 0.033
- CTGAGCAC — higher, 0.0183 ± 0.04
- CCCCCTGC — lower, -0.253 ± 0.059
- AACTATCT — within error, -0.0669 ± 0.076
- GCAGACGC — within error, -0.09 ± 0.041
- AAGGGGTC — lower, -0.177 ± 0.02
- GAGGTACA — lower, -0.209 ± 0.034
- GCCTCCCC — lower, -0.145 ± 0.0075
- CTCGTCGA — within error, -0.0938 ± 0.039
- AACTGAAT — lower, -0.239 ± 0.045
- CTATTCGC — higher, 0.266 ± 0.0095
- GTAATCAA — within error, -0.0577 ± 0.022
- CAACTTGG — higher, 0.181 ± 0.025
- AGGGTGAG — higher, 0.137 ± 0.097
- CGACATTC — within error, -0.159 ± 0.051
- AGAGTACT — within error, -0.133 ± 0.067
- ATATCCTC — lower, -0.14 ± 0.015
- AGGGTGAC — higher, 0.326 ± 0.031
- GACCTTAA — lower, -0.136 ± 0.0073
- CTATATCC — within error, -0.138 ± 0.016
- CGGCAAGC — within error, -0.107 ± 0.01
- ATTCATAA — lower, -0.207 ± 0.036
- CCGCACAG — within error, -0.00829 ± 0.13
- CTCGTGCC — higher, -0.0213 ± 0.0088
- AGGCAATG — within error, -0.128 ± 0.041
- CCCTGGCG — higher, 0.0422 ± 0.0021
- CCATGACA — higher, 0.04 ± 0.02
- CTGCTGGA — lower, -0.212 ± 0.047
- CAGTATCG — higher, 0.072 ± 0.041
- ACAAGCCA — higher, 0.152 ± 0.057
- ACCTATTA — higher, -0.00639 ± 0.025
- ATAAACTC — within error, -0.0745 ± 0.061
- GAAGTCCC — lower, -0.155 ± 0.028
- GACGGGAA — higher, 0.0737 ± 0.042
- AGATTTCG — higher, 0.0377 ± 0.012
- CATTTCTA — higher, 0.112 ± 0.031
- AGAGTTGA — higher, 0.0684 ± 0.016
- GAACCCAC — lower, -0.277 ± 0.022
- TGTACCAA — within error, -0.0377 ± 0.049
- ACCGGCCG — lower, -0.17 ± 0.0053
- ATGATACG — within error, -0.101 ± 0.044
- CTCTGGCC — lower, -0.232 ± 0.07
- GTGACCAA — higher, 0.0977 ± 0.11
- ATTGGCTA — within error, -0.147 ± 0.05
- GTAACGTA — lower, -0.266 ± 0.0049
- CTTTATCC — lower, -0.291 ± 0.027
- CTCGGCAA — within error, -0.0618 ± 0.075
- CAAGCAAC — within error, -0.0613 ± 0.033
- ACCGAAGA — higher, -0.0421 ± 0.0039
- AATTCTAG — within error, -0.0518 ± 0.044
- AATCAATT — higher, 0.0618 ± 0.039
- AGGATACC — within error, -0.198 ± 0.1
- AGGCACTA — within error, -0.127 ± 0.068
- ATACGTCC — lower, -0.2731 ± 0.0014
- AGCTAGCG — higher, 0.12 ± 0.01
- AGTTTAGA — within error, -0.0804 ± 0.033
- CCTATAAG — higher, 0.167 ± 0.0054
- AGGTGGAA — higher, 0.0714 ± 0.0024
- ACAAGTCG — higher, 0.198 ± 0.003
- ACAGATCC — within error, -0.169 ± 0.077
- AAACACGT — higher, 0.289 ± 0.021
- AGCGACCG — within error, -0.0525 ± 0.12
- AACGGCGG — higher, 0.0126 ± 0.024
- CAACAGGG — lower, -0.199 ± 0.016
- CTTGTTCA — within error, -0.0656 ± 0.023
- CCGTACGG — lower, -0.233 ± 0.071
- ACAGTGGG — within error, -0.0158 ± 0.16
- AAAGTATA — within error, -0.0239 ± 0.088
- ATAACGAA — higher, 0.0208 ± 0.016
- CAAGGTTA — higher, -0.0523 ± 0.0068
- ACCTCCGC — higher, 0.148 ± 0.023
- CAGACCAA — within error, -0.1214 ± 0.001
- CAAGCACA — higher, 0.0154 ± 0.062
- AATAATTG — within error, -0.0383 ± 0.073
- GTCGTGAA — higher, 0.265 ± 0.018
- TGCCAGCA — higher, 0.0676 ± 0.051
- GCGGTACC — higher, 0.00592 ± 0.045
- GAATTAGC — higher, 0.198 ± 0.036
- GAGATCAC — higher, 0.201 ± 0.018
- AAAGTAAT — lower, -0.294 ± 0.11
- AGAAGTAC — lower, -0.211 ± 0.048
- AACACACA — higher, 0.259 ± 0.021
- TGCGCAAA — higher, 0.0872 ± 0.1
- TCACAGCA — higher, 0.224 ± 0.016
- CCGATAGA — lower, -0.318 ± 0.0043
- CAACAACG — higher, 0.111 ± 0.013
- CCTTTAGA — lower, -0.278 ± 0.016
- CAGTAAAA — lower, -0.261 ± 0.025
- ACGGTATC — within error, -0.101 ± 0.036
- ATCGTGAA — higher, 0.155 ± 0.034
- CCAGAAAA — higher, -0.0136 ± 0.013
- CTAATGAC — higher, 0.0896 ± 0.021
- CCGTGGTA — within error, -0.0871 ± 0.014
- AACGGCCC — lower, -0.201 ± 0.023
- CATCATAA — within error, -0.0413 ± 0.036
- GCAATAGC — higher, 0.0642 ± 0.02
- CGCAATGA — within error, -0.174 ± 0.076
- ATCAGTAA — lower, -0.178 ± 0.0057
- CTTCTTCA — within error, -0.0193 ± 0.045
- GGTCGACC — lower, -0.253 ± 0.033
- CATGCCCG — within error, -0.0654 ± 0.012
- GCAAAATA — lower, -0.146 ± 0.013
- TAAGAATA — within error, -0.069 ± 0.035
- ATGCGTCG — higher, 0.0529 ± 0.026
- ACAGAGTG — higher, 0.0124 ± 0.051
- AGAATAAA — within error, -0.131 ± 0.073
- AATGATAT — within error, -0.143 ± 0.097
- GTGCCTAA — higher, 0.0531 ± 0.03
- GACGGCTA — within error, -0.201 ± 0.095
- AGGGACAT — lower, -0.249 ± 0.004
- GGGCTGAA — within error, -0.15 ± 0.036
- ATCGATTC — higher, 0.064 ± 0.021
- CGTTGCCA — higher, 0.264 ± 0.012
- CACACACG — higher, 0.181 ± 0.059
- AGAGATAA — within error, -0.0215 ± 0.049
- CGTGGACC — lower, -0.226 ± 0.088
- AGTTTTTC — lower, -0.16 ± 0.03
- AACGCAGA — within error, -0.13 ± 0.04
- ATCGGCTG — within error, -0.0239 ± 0.079
- GTGTCCCA — higher, 0.0602 ± 0.027
- GGAGGCAA — lower, -0.288 ± 0.045
- CAGCGAAC — within error, -0.0234 ± 0.07
- AGGTCGAG — higher, -0.0267 ± 0.008
- GCGCAATA — higher, 0.0523 ± 0.034
- ATCAGGGG — within error, -0.118 ± 0.0015
- GGCACATA — higher, 0.1543 ± 0.001
- AGAAGGGC — within error, -0.11 ± 0.013
- GTAATATA — within error, -0.0166 ± 0.059
- CGGGCACG — lower, -0.212 ± 0.055
